Data published in the supplement of paper PMC8728848.
This is one part of the list.

How the values were obtained:
Assay in all cases: glycan array binding signal (z-score within array); higher = stronger binding
Details in all cases: glycan notation: IUPAC condensed, linker removed
[1] = molecular target: Neu5Ac(a2-3)GalNAc(b1-4)GlcNAc
How it was run: (§1)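 Negative Z-scores can be read as non-binding. The Z-score is calculated within each array and then averaged across arrays of one protein sequence at different concentrations or buffers and across linkers. Arrays, 3228 in all, were curated from the Consortium for Functional Glycomics database and kept only where the protein sequence was available.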

[2] = molecular target: Neu5Ac(a2-3)[GalNAc(b1-4)]Gal(b1-4)Glc
How it was run: as §1

[3] = molecular target: Neu5Ac(a2-3)[GalNAc(b1-4)]Gal(b1-4)GlcNAc
How it was run: as §1

[4] = molecular target: Neu5Ac(a2-3)[GalNAc(b1-4)]Gal(b1-4)GlcNAc(b1-3)GalNAc
How it was run: as §1

[5] = molecular target: Neu5Ac(a2-3)[Neu5Ac(a2-6)]GalNAc
How it was run: as §1

[6] = molecular target: Neu5Ac(a2-6)Gal
How it was run: as §1

[7] = molecular target: Neu5Ac(a2-6)Gal(b1-3)GlcNAc(b1-3)[Gal(b1-4)GlcNAc(b1-6)]Gal(b1-4)Glc
How it was run: as §1

[8] = molecular target: Neu5Ac(a2-6)Gal(b1-4)Glc
How it was run: as §1

[9] = molecular target: Neu5Ac(a2-6)Gal(b1-4)GlcNAc
How it was run: as §1

[10] = molecular target: Neu5Ac(a2-6)Gal(b1-4)GlcNAc(b1-2)Man
How it was run: as §1

[11] = molecular target: Neu5Ac(a2-6)Gal(b1-4)GlcNAc(b1-2)Man(a1-3)Man(b1-4)GlcNAc(b1-4)GlcNAc
How it was run: as §1

[12] = molecular target: Neu5Ac(a2-6)Gal(b1-4)GlcNAc(b1-2)Man(a1-3)[Gal(b1-4)GlcNAc(b1-2)Man(a1-6)]Man(b1-4)GlcNAc(b1-4)GlcNAc
How it was run: as §1

[13] = molecular target: Neu5Ac(a2-6)Gal(b1-4)GlcNAc(b1-2)Man(a1-3)[GlcNAc(b1-2)Man(a1-6)]Man(b1-4)GlcNAc(b1-4)GlcNAc
How it was run: as §1

[14] = molecular target: Neu5Ac(a2-6)Gal(b1-4)GlcNAc(b1-2)Man(a1-3)[GlcNAc(b1-4)][Neu5Ac(a2-6)Gal(b1-4)GlcNAc(b1-2)Man(a1-6)]Man(b1-4)GlcNAc(b1-4)GlcNAc
How it was run: as §1

[15] = molecular target: Neu5Ac(a2-6)Gal(b1-4)GlcNAc(b1-2)Man(a1-3)[Man(a1-6)]Man(b1-4)GlcNAc(b1-4)GlcNAc
How it was run: as §1

[16] = molecular target: Neu5Ac(a2-6)Gal(b1-4)GlcNAc(b1-2)Man(a1-3)[Neu5Ac(a2-3)Gal(b1-4)GlcNAc(b1-2)Man(a1-6)]Man(b1-4)GlcNAc(b1-4)GlcNAc
How it was run: as §1

[17] = molecular target: Neu5Ac(a2-6)Gal(b1-4)GlcNAc(b1-2)Man(a1-3)[Neu5Ac(a2-6)Gal(b1-4)GlcNAc(b1-2)Man(a1-6)]Man(b1-4)GlcNAc(b1-4)GlcNAc
How it was run: as §1

[18] = molecular target: Neu5Ac(a2-6)Gal(b1-4)GlcNAc(b1-2)Man(a1-3)[Neu5Ac(a2-6)Gal(b1-4)GlcNAc(b1-2)Man(a1-6)]Man(b1-4)GlcNAc(b1-4)[Fuc(a1-6)]GlcNAc
How it was run: as §1

[19] = molecular target: Neu5Ac(a2-6)Gal(b1-4)GlcNAc(b1-2)Man(a1-6)Man(b1-4)GlcNAc(b1-4)GlcNAc
How it was run: as §1

[20] = molecular target: Neu5Ac(a2-6)Gal(b1-4)GlcNAc(b1-2)Man(a1-6)[Gal(b1-4)GlcNAc(b1-2)Man(a1-3)]Man(b1-4)GlcNAc(b1-4)GlcNAc
How it was run: as §1

[21] = molecular target: Neu5Ac(a2-6)Gal(b1-4)GlcNAc(b1-2)Man(a1-6)[GlcNAc(b1-2)Man(a1-3)]Man(b1-4)GlcNAc(b1-4)GlcNAc
How it was run: as §1

[22] = molecular target: Neu5Ac(a2-6)Gal(b1-4)GlcNAc(b1-2)Man(a1-6)[Man(a1-3)]Man(b1-4)GlcNAc(b1-4)GlcNAc
How it was run: as §1

[23] = molecular target: Neu5Ac(a2-6)Gal(b1-4)GlcNAc(b1-2)[Neu5Ac(a2-6)Gal(b1-4)GlcNAc(b1-4)]Man(a1-3)[GlcNAc(b1-4)][Neu5Ac(a2-6)Gal(b1-4)GlcNAc(b1-2)[Neu5Ac(a2-6)Gal(b1-4)GlcNAc(b1-6)]Man(a1-6)]Man(b1-4)GlcNAc(b1-4)GlcNAc
How it was run: as §1

[24] = molecular target: Neu5Ac(a2-6)Gal(b1-4)GlcNAc(b1-2)[Neu5Ac(a2-6)Gal(b1-4)GlcNAc(b1-4)]Man(a1-3)[GlcNAc(b1-4)][Neu5Ac(a2-6)Gal(b1-4)GlcNAc(b1-4)Man(a1-6)]Man(b1-4)GlcNAc(b1-4)GlcNAc
How it was run: as §1

[25] = molecular target: Neu5Ac(a2-6)Gal(b1-4)GlcNAc(b1-2)[Neu5Ac(a2-6)Gal(b1-4)GlcNAc(b1-6)]Man(a1-6)[Neu5Ac(a2-6)Gal(b1-4)GlcNAc(b1-2)Man(a1-3)][GlcNAc(b1-4)]Man(b1-4)GlcNAc(b1-4)GlcNAc
How it was run: as §1

[26] = molecular target: Neu5Ac(a2-6)Gal(b1-4)GlcNAc(b1-3)Gal(b1-3)GlcNAc
How it was run: as §1

[27] = molecular target: Neu5Ac(a2-6)Gal(b1-4)GlcNAc(b1-3)Gal(b1-4)GlcNAc
How it was run: as §1

[28] = molecular target: Neu5Ac(a2-6)Gal(b1-4)GlcNAc(b1-3)Gal(b1-4)GlcNAc(b1-2)Man(a1-3)[Neu5Ac(a2-6)Gal(b1-4)GlcNAc(b1-3)Gal(b1-4)GlcNAc(b1-2)Man(a1-6)]GalNAc
How it was run: as §1

[29] = molecular target: Neu5Ac(a2-6)Gal(b1-4)GlcNAc(b1-3)Gal(b1-4)GlcNAc(b1-3)Gal(b1-4)GlcNAc
How it was run: as §1

[30] = molecular target: Neu5Ac(a2-6)Gal(b1-4)GlcNAc(b1-3)Gal(b1-4)GlcNAc(b1-3)Gal(b1-4)GlcNAc(b1-2)Man(a1-3)[Neu5Ac(a2-6)Gal(b1-4)GlcNAc(b1-3)Gal(b1-4)GlcNAc(b1-3)Gal(b1-4)GlcNAc(b1-2)Man(a1-6)]GalNAc
How it was run: as §1

[31] = molecular target: Neu5Ac(a2-6)Gal(b1-4)GlcNAc(b1-3)Gal(b1-4)GlcNAc(b1-3)GalNAc
How it was run: as §1

[32] = molecular target: Neu5Ac(a2-6)Gal(b1-4)GlcNAc(b1-3)Gal(b1-4)GlcNAc(b1-3)[Neu5Ac(a2-6)Gal(b1-4)GlcNAc(b1-3)Gal(b1-4)GlcNAc(b1-6)]GalNAc
How it was run: as §1

[33] = molecular target: Neu5Ac(a2-6)Gal(b1-4)GlcNAc(b1-3)Gal(b1-4)GlcNAc(b1-6)[Gal(b1-3)]GalNAc
How it was run: as §1

[34] = molecular target: Neu5Ac(a2-6)Gal(b1-4)GlcNAc(b1-3)Gal(b1-4)[Fuc(a1-3)]GlcNAc(b1-3)Gal(b1-4)[Fuc(a1-3)]GlcNAc
How it was run: as §1

[35] = molecular target: Neu5Ac(a2-6)Gal(b1-4)GlcNAc(b1-3)GalNAc
How it was run: as §1

[36] = molecular target: Neu5Ac(a2-6)Gal(b1-4)GlcNAc(b1-3)[Neu5Ac(a2-6)Gal(b1-4)GlcNAc(b1-6)]GalNAc
How it was run: as §1

[37] = molecular target: Neu5Ac(a2-6)Gal(b1-4)GlcNAc(b1-6)GalNAc
How it was run: as §1

[38] = molecular target: Neu5Ac(a2-6)Gal(b1-4)GlcNAc(b1-6)[Gal(b1-3)GlcNAc(b1-3)]Gal(b1-4)Glc
How it was run: as §1

B1: FimA-N3 (Actinomyces oris) (protein)
chain: MHHHHHHSSGVDLGTENLYFQSNAGLQGAQFQLYKAKNAYANTCSNEKEGAPIAINGQTTLTTDAQGAIDIKGLFISDSIDGADRDNQVNAMERCYVLVETKAPAGYVLPAGNGAATPVKVKAGEETTDN
glycan array binding signal (z-score) [1]: -0.492
glycan array binding signal (z-score) [2]: -0.272
glycan array binding signal (z-score) [3]: -0.526
glycan array binding signal (z-score) [4]: -0.212
glycan array binding signal (z-score) [5]: 0.074
glycan array binding signal (z-score) [6]: 0.344
glycan array binding signal (z-score) [7]: -0.529
glycan array binding signal (z-score) [8]: -0.401
glycan array binding signal (z-score) [9]: -0.211
glycan array binding signal (z-score) [10]: -0.531
glycan array binding signal (z-score) [11]: -0.045
glycan array binding signal (z-score) [12]: -0.107
glycan array binding signal (z-score) [13]: -0.619
glycan array binding signal (z-score) [14]: -0.388
glycan array binding signal (z-score) [15]: 0.82
glycan array binding signal (z-score) [16]: 0.214
glycan array binding signal (z-score) [17]: 0.03
glycan array binding signal (z-score) [18]: -0.033
glycan array binding signal (z-score) [19]: -0.562
glycan array binding signal (z-score) [20]: -0.608
glycan array binding signal (z-score) [21]: 0.223
glycan array binding signal (z-score) [22]: 0.03
glycan array binding signal (z-score) [23]: 0.872
glycan array binding signal (z-score) [24]: 0.321
glycan array binding signal (z-score) [25]: -0.248
glycan array binding signal (z-score) [26]: -0.189
glycan array binding signal (z-score) [27]: -0.049
glycan array binding signal (z-score) [28]: -0.327
glycan array binding signal (z-score) [29]: -0.309
glycan array binding signal (z-score) [30]: -0.028
glycan array binding signal (z-score) [31]: 0.137
glycan array binding signal (z-score) [32]: -0.453
glycan array binding signal (z-score) [33]: -0.138
glycan array binding signal (z-score) [34]: -0.37
glycan array binding signal (z-score) [35]: -0.16
glycan array binding signal (z-score) [36]: -0.133
glycan array binding signal (z-score) [37]: -0.026
glycan array binding signal (z-score) [38]: -0.101
